Data from PubChem BioAssay AID720707 (National Center for Advancing Translational Sciences (NCATS), 2013).
The campaign covered roughly 360,000 compounds. About 270 (0.075%) were called active. Inconclusive results, whose numbers are uncertain, are shown with a selection of clear calls. Calls come from the whole dose curve; as a rule, active = well fitted activation curve with a large enough effect; inconclusive = small, poorly fitted or top-dose-only effect; inactive = no such curve, though single readings can be large or run the other way. Potencies of inconclusive entries are doubtful fits and often do not repeat.

molecular target: Rap guanine nucleotide exchange factor 3 (Homo sapiens) (UniProt O95398); assay: qHTS for Agonist of cAMP-regulated guanine nucleotide exchange factor 3 (EPAC1): primary screen; details: biochemical assay; activation: at 154 µM (top of the series), 100% = response to 6.5 mM cAMP; note: nearly all actives have a fitted effect of over 60% in size
Method in brief: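 Normalized to 6.5 mM cAMP, activity reflects EPAC1-catalysed release of BODIPY-GDP from Rap1B, followed kinetically over 30 min at 480 nm excitation, 540 nm emission. Reaction contained 100 nM EPAC1, 250 nM Rap1B-BODIPY-GDP, 50 uM GDP.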
Potency is the fitted concentration of half-maximal effect; tags give direction and shape of the fitted curve.

UniProt O95398, sequence (O95398 whole entry, looked up): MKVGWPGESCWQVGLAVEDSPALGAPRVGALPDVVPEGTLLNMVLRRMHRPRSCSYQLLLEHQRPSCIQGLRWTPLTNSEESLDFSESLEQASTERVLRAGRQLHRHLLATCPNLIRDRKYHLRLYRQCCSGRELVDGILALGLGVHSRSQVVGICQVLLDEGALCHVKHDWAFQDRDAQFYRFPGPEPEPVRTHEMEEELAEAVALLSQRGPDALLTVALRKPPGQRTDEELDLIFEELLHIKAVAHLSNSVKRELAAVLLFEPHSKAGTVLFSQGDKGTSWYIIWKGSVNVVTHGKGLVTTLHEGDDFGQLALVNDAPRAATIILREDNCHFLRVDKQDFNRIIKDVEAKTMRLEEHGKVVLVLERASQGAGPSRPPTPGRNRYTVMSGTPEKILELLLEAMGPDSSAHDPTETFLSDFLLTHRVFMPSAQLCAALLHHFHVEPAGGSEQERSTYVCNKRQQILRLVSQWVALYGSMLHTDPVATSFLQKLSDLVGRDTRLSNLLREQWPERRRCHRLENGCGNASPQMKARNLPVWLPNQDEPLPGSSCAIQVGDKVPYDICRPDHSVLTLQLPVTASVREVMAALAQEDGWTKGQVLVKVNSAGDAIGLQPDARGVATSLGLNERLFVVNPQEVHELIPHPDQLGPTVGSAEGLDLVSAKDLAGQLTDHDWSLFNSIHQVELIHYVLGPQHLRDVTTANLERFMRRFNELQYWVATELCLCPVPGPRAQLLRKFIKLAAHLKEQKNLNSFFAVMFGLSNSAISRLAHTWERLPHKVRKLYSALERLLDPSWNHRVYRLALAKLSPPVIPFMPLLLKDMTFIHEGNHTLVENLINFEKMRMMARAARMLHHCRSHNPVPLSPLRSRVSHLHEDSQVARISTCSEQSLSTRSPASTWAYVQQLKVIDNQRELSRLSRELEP

Potency, inactive:
O=C(c1ccccc1)N1CCN(C(=O)C23CC4CC(CC(C4)C2)C3)CC1, Nc1nc(-c2ccccc2Cl)cs1, O=C1C(=O)c2ccccc2C(O)=C1CCCCl, COc1ccc(CN2C(=O)C(CC(=O)NC3CC3)CC(C(=O)N3CCOCC3)=C2C)cc1 (stereo not given), N#Cc1c([N+](=O)[O-])cc([N+](=O)[O-])cc1S(=O)(=O)Cc1ccccc1, O=C1NC(=Nc2ccccc2)S/C1=C\C=C\c1ccco1, CCn1c2ccccc2c2cc(NC(=O)c3ccc(=O)oc3)ccc21, Cc1oc(-c2ccccc2)nc1CS(=O)CC(=O)NC1CCCC1 (stereo not given), O=C(/C=C/c1cccnc1)c1cccc(O)c1, CC(C(=O)N1CCCc2ccccc21)N1CCN(c2ccccn2)CC1 (stereo not given), CCCCC(=O)Nc1c(-c2ccc(OC)c(OC)c2)c(=O)c2ccccc2n1C, C/C(=N\Nc1nc2ccccc2[nH]1)c1ccc2c(c1)OCO2

Potency, active:
Cc1ccc(SCC(=O)OCC(=O)N(C)CC(=O)Nc2ccc(F)cc2)cc1C 126 µM, CC[n+]1c(/C=C/C=C/N(C(C)=O)c2ccccc2)sc2cc(OC)ccc21 100 µM, COc1cc2cc(Oc3ccc4ccc(=O)oc4c3)c(=O)oc2cc1O 79.4 µM

Potency, inconclusive:
CCN=c1scc(-c2ccco2)n1/N=C/c1ccc(OC)c(O)c1 100 µM [activator, partial curve], O=C(NCC(c1ccco1)N1CCCC1)c1ccccc1Sc1ccc(C(F)(F)F)cc1[N+](=O)[O-] (stereo not given) 112 µM [activator, partial curve], C=CCc1ccccc1Oc1cc(OC)nc(N)n1 39.8 µM [activator, full curve, poor fit], CCCN(C(=O)COC(=O)COc1c(C)cccc1C)c1c(N)n(Cc2ccccc2)c(=O)[nH]c1=O 70.8 µM [activator, partial curve], O=C(c1cc(-c2ccc(Cl)cc2)nc2ccccc12)N1CCC1 63.1 µM [activator, full curve, poor fit], CCN(c1ccccc1)S(=O)(=O)c1ccc(OC)c(NC(=O)CCc2nc3ccccc3c(=O)[nH]2)c1 126 µM [activator, partial curve], NC(=O)C1CCN(C(=O)Nc2csc3ccccc23)CC1 89.1 µM [activator, partial curve], CCOc1ccc(NC(=NCc2ccc3c(c2)OCO3)SC2CC(=O)N(c3ccc(C(=O)O)cc3)C2=O)cc1 (stereo not given) 112 µM [activator, single point], O=C(Nc1cc2c3c(c1)CC(=O)N3CCC2)c1c(F)cccc1F 39.8 µM [activator, partial curve], CCOc1cc(/C=N/NC(=O)c2ccc(-c3csc(Nc4ccc(C)cc4)n3)cc2)ccc1OCC(=O)O 56.2 µM [activator, partial curve], CCCN(CC(=O)Nc1ccccc1C)C(=O)C1CCN(S(=O)(=O)c2ccccc2C(F)(F)F)CC1 31.6 µM [activator, single point], O=C1/C(=C/c2ccc(N3CCCC3)cc2)NC(=S)N1C1CC1 112 µM [activator, partial curve], O=C(COC(=O)CCc1nc2ccccc2c(=O)[nH]1)Nc1c(Cl)cccc1C(F)(F)F 126 µM [activator, single point], Cc1ccc(S(=O)(=O)N2CCC(C(=O)Nc3ccccc3N3CCCCC3)CC2)cc1C 22.4 µM [activator, full curve], Cn1cc(/C=C/c2cc[n+](C)cc2)c2cc(F)ccc21 112 µM [activator, single point], Cc1ccc(-c2nc(C=Nc3ccccc3)c(O)o2)cc1 112 µM [activator, partial curve], O=C(c1ccc(F)c(S(=O)(=O)N2CCOCC2)c1)N1CCc2ccccc21 50.1 µM [activator, single point], Cc1cc(=O)oc2cc(NC(=O)C(C)Oc3ccccc3)ccc12 (stereo not given) 100 µM [activator, partial curve], Cc1cc(OCCn2cc(/C(N)=N/O)c3ccccc32)ccc1Cl 112 µM [activator, single point], Cc1ccc(S(=O)(=O)NCc2ccccc2)cc1C(=O)N1CCCC(C(F)(F)F)C1 (stereo not given) 126 µM [activator, partial curve, poor fit], c1ccc2c(CN3CCSCC3)cccc2c1 112 µM [activator, single point], CC(NC(=O)c1ccco1)C(c1cccs1)N1CCN(c2ccccc2F)CC1 (stereo not given) 112 µM [activator, partial curve], O=C(COC(=O)C1CCC1)NCc1ccc(Cl)cc1Cl 56.2 µM [activator, single point], Cc1csc(=NC(=O)c2ccccc2)n1Cc1ccco1 100 µM [activator, partial curve], O=C1CCNc2ccc(-c3ccccc3)cc21 126 µM [activator, single point], CN1CCN(C(CNC(=O)c2ccc(Br)o2)c2ccc(F)cc2)CC1 (stereo not given) 22.4 µM [activator, full curve], CCOC(=O)C1=C(Cc2ccc(OC)cc2)C(=O)c2ccccc2C1=O 112 µM [activator, partial curve], CCOC(=O)C1CCCCN1C(=O)c1oc2c(Cl)cc(C)cc2c1C (stereo not given) 50.1 µM [activator, single point], O=C(Nc1ccc(S(=O)(=O)N2CCCCC2)cc1)C1CCN(C(=O)c2ccc(F)cc2)CC1 5.01 µM [activator, full curve, poor fit]

activation, inconclusive:
O=c1ccc2c(-c3ccccc3)c3ccc(O)cc3oc-2c1 72.9% [activator]
